B1: Batch 2: Ssp^N batch mutant (L56F, S70K, A83P, E85D) on chimera 1; plasmid 9, SEQ ID NO: 369 (protein)
chain: MGSSHHHHHHGSGLVPRGSASMSDSEVNQEAKPEVKPEVKPETHINLKVSDGSSEIFFKIKKTTPLRRLMEAFAKRQGKEMDSLRFLYDGIRIQADQTPEDLDMEDNDIIEAHREQIGGAEYCLSFGTEILTVEYGPLPIGKIVSEEINCSVYSVDPEGRVYTQAIAQWHDRGEQEVFEYELEDGSVIRATKDHRFLTTDYQLLPIDEIFARQLDLLTLENIKQTEEALDNHRLPFPLLDAGTIK
B2: Batch 1: Ssp^N batch mutant (R73K, L75M, Y79G, L81M) on chimera 1; plasmid 5, SEQ ID NO: 365 (protein)
chain: MGSSHHHHHHGSGLVPRGSASMSDSEVNQEAKPEVKPEVKPETHINLKVSDGSSEIFFKIKKTTPLRRLMEAFAKRQGKEMDSLRFLYDGIRIQADQTPEDLDMEDNDIIEAHREQIGGAEYCLSFGTEILTVEYGPLPIGKIVSEEINCSVYSVDPEGRVYTQAIAQWHDRGEQEVLEYELEDGSVIRATSDHKFMTTDGQMLAIEEIFARQLDLLTLENIKQTEEALDNHRLPFPLLDAGTIK

Tested on: split intein constructs with short native extein sequences
Test: in vitro protein trans-splicing (PTS) assay, RP-HPLC / ESI-MS kinetics
Type: biochemical
Conditions: 30° C., three state kinetic model
From the text: Thus, attention was focused on ‘second shell’ residues, those directly adjacent to the active site. To simplify this analysis, a batch mutagenesis strategy was employed in conjunction with a previously reported in vitro PTS assay.^5 This assay uses split intein constructs with short native extein sequences and allows the rates of branched intermediate formation (k1,k2) and its resolution to final splice products (k3) to be determined using a three state kinetic model.
Splicing reactions were carried out as adapted from a previously described protocol. […] For all splicing reactions containing either Npu^C-CFN or Cfa^C-CFN, reaction progress was monitored by RP-HPLC. […]
Kinetic analysis was carried out as previously described.^1 Briefly, five species (1-5) are separated by RP-HPLC, and peak areas are determined. For ESI-MS, peak areas are calculated for species 1-4. […] Each splicing reaction was carried out in triplicate with each replicate analyzed separately. […]
All splicing reactions comparing Npu and Cfa were separated by RP-HPLC with peak areas once again calculated using the manufacturer's software. For these reactions, peak areas for the starting material and branched intermediate (species 1 and 2) and product (species 3, 4, 5) were calculated. […]

Row | Molecule | rate of branch formation (k1, k2) compared to native Npu | rate of branch resolution (k3) compared to native Npu
1 | B1 | completely restored | –
2 | B2 | – | restored the majority

From patent US11142550B2, “Split inteins with exceptional splicing activity” (THE TRUSTEES OF PRINCETON UNIVERSITY, priority 2016, dated 2021)
